Among the data in article PMC10726135 are binding signal (log2 normalized intensity) values, retold here.

Some of the results follow. At the low end of the ranking the order means little. Measured with an extract: partners may take part in the binding.

This assay has as its target T1, HNF4alpha2 (COS-7 nuclear extract) (UniProt P41235).
T1 sequence: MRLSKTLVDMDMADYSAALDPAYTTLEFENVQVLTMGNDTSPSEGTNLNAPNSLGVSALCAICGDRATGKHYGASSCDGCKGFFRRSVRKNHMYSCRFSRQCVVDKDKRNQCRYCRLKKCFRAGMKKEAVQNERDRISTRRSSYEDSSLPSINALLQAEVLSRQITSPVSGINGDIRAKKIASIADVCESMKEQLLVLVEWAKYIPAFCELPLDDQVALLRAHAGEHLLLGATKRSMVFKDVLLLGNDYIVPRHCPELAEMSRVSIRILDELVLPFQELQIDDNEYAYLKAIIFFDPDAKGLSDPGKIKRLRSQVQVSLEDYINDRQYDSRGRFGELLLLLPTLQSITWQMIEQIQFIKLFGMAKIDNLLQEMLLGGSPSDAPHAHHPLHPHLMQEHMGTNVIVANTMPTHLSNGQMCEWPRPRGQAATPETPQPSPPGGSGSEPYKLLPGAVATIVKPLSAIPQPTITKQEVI
Nature of the assay: protein-binding microarray. To be noted: COS-7 nuclear extract on double-stranded Agilent 4x180k PBM; binding buffer, salt, pH and temperature not given; high values mean tight binding; double strand, one strand shown; sequences stand for … in …GCCTAGGGAGATTAGAGTATCGGTCGA
Consider CATGTAACTGCTATTGGTTGTCAGACTGGT, for which the binding signal (log2 normalized intensity) amounted to 1.95.
For the sequence CACATACACCTGCGTGTACTAAGGTCTTAA, the binding signal (log2 normalized intensity) came to 1.12.
The result for CTTCCATTGTGATTCCTGTGATACCTTCTT reads 1.89.
On to GCTACTGTGGTTCCCAAGAAGAGCCCAGAC, for which the binding signal (log2 normalized intensity) was -1.12.
As to GACTGATAAGGCTAAGTGGAGGATTTGGGT, the binding signal (log2 normalized intensity) was -0.887.
The result for GCACAGGGTTGAGTGGTGACTGAAGTCCAA reads 2.02; that for CCACGCACTCGCCTGACTCCCTGACGCCAT, -1.12; that for CTAAAGTCCAAAGTCTCAACTAAGTGTTAT, 4.29.
The result for TTTGTGTGTTTAATGTTTTCATTCTGATTT reads 1.32; that for AGGAGAATCGCTTGAACCCAGGGGACGGAA, -1.16.
As for AAACGTATGACTTTGGAGCACTCATTCCTA, the figure is -0.815.
As for GAGTGTCCTGCCCCCTGGAGGAGTGAGGGA, the binding signal (log2 normalized intensity) was determined as 1.34.
The result for AGCAAGTTTTATATGAAAACAAAGGAAACC reads -1.08; that for CAGAAGAAACATGCGATACTTGACCTGCAA, 2.25; that for CTCAGGAACTTTGTTTGTGTTTCCCTCCCT, 2.83.
As to ATGCAACTTTTAATCAGAGCAGTTCAGCTC, the binding signal (log2 normalized intensity) was -1.13.
The result for TTCCAGCCTCCTGCTCTGGGCTTTCTCTGC reads -1.24; that for TTACACAAAATCGCCACTACAAAGGGAATC, -1.07; that for TTCAACTGTGTGAGCTGATCACACCATATC, -0.498.
The result for GTAAAAACAACTGCCACTTATTGTGTTATG reads 0.718; that for CCTCCTTCCGCGGACGTGTTCCCACAGTGC, 0.803.
The result for TAGAAACAAGACAGAATGATTCTCAGAAAC reads -1.11.
AGCAAATCCCAATTCACTGACACAAATTAT: the binding signal (log2 normalized intensity) was -1.04.
As for CAAGCAGAACCTTGGAGGCGGCGGCTCCGG, the figure is -1.19; as for GAGGGGGACTGGAAGGGAGAGATAAGAAAA, -1.17; as for GGGGAGCAAAGGTTAGCAAGGGCCCCCACT, 2.47.
As for GACCCCCACTGCCTGCCTGCCAACTCCACG, the figure is 3.33.
Regarding TCTGACCTTTGGCATTGTGTTACGTCTGGT, the binding signal (log2 normalized intensity) stood at 3.71.
The result for GTTAAAGGAGATAATGGGTGTAAGATACCT reads -1.09; that for AGACAAGCTCTGTTTGTTTTGTTACACATC, 0.945; that for AGTCCTCTCTCGCGAGAGCCGAAGTCTCTC, -1.11.
The result for TACTGGACAGCCAGCTGGTAAATAAAGGAA reads -1.02.
Consider GGCCATGTCTCAGCCCAAGATCAAAAGGCA, for which the binding signal (log2 normalized intensity) was -1.14.
As for CCAAGATGCTAAGGCAAGATCATTCCAGGA, the figure is -1.11; as for AGAGGTGAGACACGTGTGCCATGCCAAAGA, -1.02; as for GGTCAGAAAAAGCTGACGCCCCACCCCCTC, 5.94.
In the case of TATTTGCTGAGGAAGACTTCATTCAGGTAG, the binding signal (log2 normalized intensity) is 0.263.
The result for CTCAAAGTTTTGTTATCTCTGCTTGCAATT reads 0.771; that for GACTGGTTCTTGGTCAGCTCCTGGGAGATG, 0.875; that for GTATAGTGACTTCCTTCCAAAGGTCACAGT, 4.85.
As for TAGAAGGCAGAGAAAGATAGGAGATAAGGG, the figure is -1.2; as for ATGGGGCATGACTTGTTATCACCTGCTGGA, 0.237; as for AGCTATGATAAAGGTTTGGGTTGGATTTGC, 1.12.
In the case of AAAGTTCAGGTTTCAAATACTCCAGTCATT, the binding signal (log2 normalized intensity) is 0.224.
As to GGGGGTAAAGTGGATTGCTGGCCTTTTATC, the binding signal (log2 normalized intensity) is 0.814.
The result for CAAGGAAAGATAAATAGTGACAAATTGTAT reads -0.0613.
In the case of GAAGAATAGATTCCATAGATAAGAGCTGAG, the binding signal (log2 normalized intensity) was -1.13.
As for GAGACAGCTCCACAGCTGGACTTTGGCTGC, the figure is 5.41; as for CTATTGCAGTAACGGCAGGGTTGTGCAGGA, 0.453.
The result for CCCTGTAAGTCCAAACAAAATACAAACACG reads -0.429; that for AGAGGTCGATCTGATCTTAAGTTGTACCTG, 2.6; that for AGGAGGCACTGATAAGCGTATTTCAACCTT, 0.384.
As for GATAGCAAAATCAATAAATCACACGAAACA, the figure is -1.15; as for AAGAGGAGAAGAATTTACCCAACTCATCAG, -1.04; as for TGCAATGTTTCCAAACCCCTCGGGACCATG, -0.67.
Consider CACAGCGCAGCACACTGCAGCGGCATTCTC, for which the binding signal (log2 normalized intensity) was -1.08.
The result for AACTGTTTCTATGTGACCTTCACCCTGCTG reads 4.15; that for TAAAAAAAAAAAAAAATACTCCTATCACCG, -1.05; that for CCAGCCTGTGGTGGGAAACTTCCACTAACT, -1.14.
As for GTAGGCTCTCGGGCCAGCTGTACAAATAAA, the figure is -1.21.
As for GGAATGTTGCTGTGCTGCCCTCTTGTGGCC, the figure is 1.66; as for GAGTCGTGGCCTTGCCATTGGAGGTCACCC, 2.39; as for CCAGCATTTCTGTGGACTGCTCCAGTGGAC, 1.02.
On to ACCCCCCAGAGGGCCATCTAGCTTAAAGGT, for which the binding signal (log2 normalized intensity) worked out at 1.79.
As for GATCTTCATGAACTTCTGTCCACAGACTCT, the figure is -0.945; as for AAGGACATTGCCCCCTATGTAAAGGCCTTT, 3.77; as for AGTGGTTAAGTTTTCGAGGAGTCAAAAGGT, 1.47.
As for AACGAGATGGTCAAGGATCTGGCCAGGCCT, the figure is -1.15; as for CCCAAATAGACTTAAGTCTGAATTCTAGTC, -0.49.
As for TAACTTGAATTGATTGCCAAGAGGGAGGGG, the figure is -1.22.
Regarding AGGATGGAATGCTGAAGGGAAGGCTGCCGT, the binding signal (log2 normalized intensity) was -1.12.
The result for ATATGCCGAGAATGCAGCCTTATCTTCCAG reads -0.957.
